Measured values as given in the supplement of paper PMC3334620.
Whole data set: some 33,000 sequences, median “E-score (-0.5 to 0.5)” near -0.035, cut for the highest 2% near 0.34. The list shows a part of the results.

molecular target: T1, Mot3 (UniProt P54785); assay: PBM E-score (8-mer binding enrichment) (E-score (-0.5 to 0.5)); higher = stronger / more preferred TF binding; most listed sequences are background and not binding sites; conditions: protein concentration: 200 nM; construct: GST-full length
T1 sequence: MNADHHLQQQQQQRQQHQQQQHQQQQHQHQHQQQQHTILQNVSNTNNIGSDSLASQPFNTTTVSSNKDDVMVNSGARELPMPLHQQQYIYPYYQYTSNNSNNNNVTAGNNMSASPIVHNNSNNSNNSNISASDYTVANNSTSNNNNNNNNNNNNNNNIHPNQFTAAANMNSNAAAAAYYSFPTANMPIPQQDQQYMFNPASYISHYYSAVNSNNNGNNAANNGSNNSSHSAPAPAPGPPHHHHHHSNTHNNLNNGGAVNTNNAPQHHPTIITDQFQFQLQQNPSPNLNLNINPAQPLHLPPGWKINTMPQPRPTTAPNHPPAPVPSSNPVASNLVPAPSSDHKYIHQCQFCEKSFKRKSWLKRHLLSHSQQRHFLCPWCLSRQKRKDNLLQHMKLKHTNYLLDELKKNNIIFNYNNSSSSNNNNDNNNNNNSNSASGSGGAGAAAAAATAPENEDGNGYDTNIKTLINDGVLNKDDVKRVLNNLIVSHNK
Method in brief: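 Detection of bound protein used fluorescent anti-GST, with scans normalised by masliner. The proteins were GST-tagged yeast transcription factors applied at about 100-200 nM to universal all-10-mer Agilent arrays made double-stranded by primer extension. Each ungapped eight-base word, pooled with its reverse complement, was scored with an E-score from the Universal PBM Analysis Suite.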

Row | Sequence | PBM E-score
1 | TTTACAAA | 0.331
2 | ATTGCAGG | 0.181
3 | ATTCGGTC | -0.0932
4 | GAGACAGA | -0.139
5 | GGTGGGCA | 0.0151
6 | CCACTACG | -0.0192
7 | AAACGTCA | -0.0312
8 | ACGGACGC | -0.134
9 | ACCGCGCA | 0.0547
10 | GAACGAGA | -0.0612
11 | GTTGGCCA | -0.263
12 | CAACGCGA | 0.17
13 | AAAAGAAT | 0.171
14 | GACGCGAA | 0.003
15 | AGATCCGG | -0.183
16 | CCATGTTC | 0.174
17 | ACGATAGA | -0.0189
18 | ACGCACGT | 0.101
19 | CCCCGTGC | 0.141
20 | CCTTTATA | 0.222
21 | ACATAACG | 0.271
22 | AGCCTTTA | 0.249
23 | GTGCGAAC | -0.257
24 | ATCGCGGA | -0.412
25 | CTACAGTC | 0.0559

Row | Sequence | PBM E-score
26 | ACCACTCC | -0.311
27 | AGAAGATG | -0.0405
28 | ACAGGTAT | 0.194
29 | CGCGTACC | 0.131
30 | TACGACAA | 0.0669
31 | CATCACCA | -0.193
32 | CGGGTAGA | -0.0712
33 | AAGGGGAG | -0.265
34 | CCTCCACG | -0.182
35 | ATTTGCGA | 0.0812
36 | GTTTGACA | 0.163
37 | CCCGCCGC | -0.301
38 | TGAAAGAA | 0.0538
39 | TCTAAAAA | 0.135
40 | ACCTTTTC | -0.0984
41 | CTGCAGTA | -0.0302
42 | CAGAACGG | -0.218
43 | ACACGTAT | 0.316
44 | CCCTAGAA | -0.0463
45 | CGTCCCGA | -0.203
46 | GCCCAGCC | -0.249
47 | AAAACGGT | -0.0282
48 | ATTTTGAC | 0.182
49 | CTACCGAC | -0.119
50 | CAATTACG | 0.26

Row | Sequence | PBM E-score
51 | AATCACAG | 0.125
52 | CTGAAACC | 0.0366
53 | GCAAAACC | -0.224
54 | AAACAAAT | 0.0643
55 | ACTGATCC | 0.0553
56 | AACCACCC | -0.189
57 | GACTATAA | -0.0717
58 | CCCGAACA | -0.0874
59 | GGTTGCAA | 0.135
60 | AGAATGTA | 0.199
61 | ACGATCAC | 0.0347
62 | ATGCTGGC | -0.024
63 | AAGTACCT | 0.338
64 | CGAAATTC | -0.00685
65 | ACGCCGCG | -0.0932
66 | TACGCGGA | 0.258
67 | CGGAAATA | -0.206
68 | AACTGCTT | -0.0923
69 | AATAGCCC | -0.0901
70 | ATTGGTTA | -0.00722
71 | CGGTAGCA | 0.0236
72 | ACGCGGCA | -0.0255
73 | AGGGCCGA | -0.203
74 | GAAAAGAA | 0.162
75 | AAGCATGC | 0.0444

Row | Sequence | PBM E-score
76 | AGCTGTGC | 0.0823
77 | CAGGATGC | -0.26
78 | AGCAAGAG | 0.0849
79 | GCATATGC | -0.12
80 | ACGCCGGC | -0.185
81 | TACACATA | 0.284
82 | AGGTAGCG | -0.103
83 | AGGGCTGA | -0.111
84 | ACTGAACA | 0.113
85 | GAGGATAA | -0.114
86 | CTGCTTTC | -0.106
87 | ATGGACAC | 0.00818
88 | AAGTAAAT | 0.295
89 | CCATACTA | 0.0332
90 | CTCGTACC | 0.11
91 | AGATCTAG | -0.0228
92 | ATTTGATA | -0.0394
93 | AGCATACT | -0.00471
94 | AGTGTCGC | -0.0232
95 | AGTGGGAG | -0.195
96 | ATACACCA | 0.129
97 | ATAGATAT | 0.00143
98 | ACAACCTG | 0.207
99 | ACGTAAGG | 0.134
100 | GCCTCGAC | 0.134

Row | Sequence | PBM E-score
101 | GTATTTAA | 0.332
102 | GGCACACC | 0.28
103 | CGACTAAG | -0.0615
104 | ATTTTCCC | -0.089
105 | TCTGCAGA | -0.327
106 | TCTACGAA | 0.0989
107 | AGAAGTGG | -0.199
108 | TATTAACA | 0.359
109 | AATGCGAG | -0.081
110 | AGTCGGTG | -0.245
111 | GCACCTAA | 0.103
112 | CACGATGG | -0.136
113 | TGACATAA | 0.338
114 | AAGGTAAA | 0.334
115 | CGCGTCGC | 0.00338
116 | ACCATTAT | -0.0343
117 | AACAATCT | 0.194
118 | ACCGCAGG | 0.0707
119 | AACATAGA | 0.2
120 | CATGTGAC | 0.148
121 | AACTTCTT | 0.0946
122 | GGACTAGA | -0.12
123 | ACGCGAAT | 0.251
124 | TAAACGAA | 0.24
125 | AGATGACC | -0.0369

Row | Sequence | PBM E-score
126 | ATGAAGGC | 0.325
127 | CTTAACCA | 0.19
128 | ACATGTAT | 0.357
129 | CGCCCTCA | -0.242
130 | CGCAAGCA | -0.0514
131 | CAAGGCAA | 0.479
132 | GGTACGTA | 0.194
133 | ACCCAAAA | -0.0205
134 | AGCAGACT | 0.00168
135 | ACCCGGCG | -0.283
136 | TATATACA | 0.316
137 | AGGGCGAT | -0.203
138 | CCATATCC | -0.163
139 | CGTGCGAA | -0.0188
140 | GCCTTCGC | 0.132
141 | GACAAGGC | 0.111
142 | ACGGGAAA | 0.0602
143 | ACAGGCTG | 0.0165
144 | GCTCGAGC | -0.0827
145 | AATAACTG | 0.0261
146 | ACATACGT | 0.127
147 | CACACCCC | 0.0557
148 | CTATTTCC | 0.267
149 | CAGACTGA | -0.132
150 | GAATTTAC | 0.134

Row | Sequence | PBM E-score
151 | ACAATGAC | 0.0513
152 | CGCCTGAA | 0.297
153 | AGGGGGTG | -0.226
154 | ATAGGTCA | 0.108
155 | CGACTTGA | -0.157
156 | GGCTACAA | -0.0512
157 | ACGAATGA | 0.141
158 | ACGACGTG | 0.187
159 | CACACTAG | -0.0999
160 | TGACAGCA | 0.0695
161 | CAGCGGCA | -0.165
162 | GCGTATCA | 0.0645
163 | AAGTCCAC | -0.187
164 | ACTGAGCG | -0.112
165 | GGCGTGAA | -0.0959
166 | CCACTGTA | -0.0867
167 | AATCGGAC | -0.167
168 | CTAGCCTC | -0.273
169 | GAATTGAA | 0.0526
170 | ACCAGTGA | -0.0292
171 | AGGACATC | -0.107
172 | CAGGCGAG | -0.0443
